Five molecules from patent US20200164029A1 (ACCELERON PHARMA, published 2020) can be followed below.

As usually defined, the Kd is the constant that tells how readily two partners part at equilibrium. A low value points to a tighter complex. Broadly, the koff is the rate constant with which the complex falls apart.

The target in assay [1] is T1, human BMP-9 (human, UniProt Q9UK05 320-429).
T1 sequence (looked up): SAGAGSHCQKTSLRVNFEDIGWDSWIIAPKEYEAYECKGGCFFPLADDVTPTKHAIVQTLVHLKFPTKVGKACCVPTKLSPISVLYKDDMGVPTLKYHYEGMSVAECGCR
The assay is described as follows: cell-based or functional assay.

The target in assay [2] is T2, human BMP-10 (human, UniProt O95393 317-424).
T2 sequence (looked up): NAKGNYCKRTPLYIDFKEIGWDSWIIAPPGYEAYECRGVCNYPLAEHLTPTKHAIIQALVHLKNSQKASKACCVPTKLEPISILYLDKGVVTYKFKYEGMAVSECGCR
The assay is described as follows: cell-based or functional assay.

The target of assay [3] is T1, human BMP-9. Kind of assay: cell-based or functional assay. The source holds these as a separate data set.
The target of assay [4] is T2, human BMP-10. Kind of assay: cell-based or functional assay. The source holds these as a separate data set.
For assay [5], the target named is T2, human BMP-10. Kind of assay: SPR kinetics, CHO-cell-derived protein. (In general: SPR reads the build-up and loss of mass on a sensor chip optically.)
Assay [6] addresses T1, human BMP-9. The assay is described as follows: SPR kinetics, captured CHO-cell-derived protein. Here is the method:
BMP-9 binding to captured CHO-cell-derived proteins was assessed at ligand concentrations of 0.0195-0.625 nM in two-fold increments. RU, response units.

For assay [7], the target named is T1, human BMP-9. Kind of assay: summary table of CHO-cell-derived fusion proteins; method not given.
The target in assay [8] is T2, human BMP-10. The description is as above.
Assay [9] deals with T1, human BMP-9. Kind of assay: SPR kinetics, HEK293-cell-derived protein.
Assay [10] deals with T2, human BMP-10. The assay is described as follows: SPR kinetics, HEK293-cell-derived protein.
The target in assay [11] is T3, human BMP-2 (human, UniProt P12643 283-396).
T3 construct: also called hBMP-2
T3 sequence (looked up): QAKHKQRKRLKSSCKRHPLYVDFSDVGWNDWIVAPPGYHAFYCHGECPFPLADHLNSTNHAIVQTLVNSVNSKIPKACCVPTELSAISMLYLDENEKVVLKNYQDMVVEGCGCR
The assay is described as follows: SPR ligand panel.

Assay [12] has as its target T4, hBMP-2/7 (human, UniProt P12643 283-396; P18075 293-431).
T4 construct: read as the BMP-2/BMP-7 heterodimer
T4 sequence (looked up) 1: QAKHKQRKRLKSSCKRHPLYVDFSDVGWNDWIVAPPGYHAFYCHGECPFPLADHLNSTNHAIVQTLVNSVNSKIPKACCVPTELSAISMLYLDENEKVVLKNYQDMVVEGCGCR
T4 sequence (looked up) 2: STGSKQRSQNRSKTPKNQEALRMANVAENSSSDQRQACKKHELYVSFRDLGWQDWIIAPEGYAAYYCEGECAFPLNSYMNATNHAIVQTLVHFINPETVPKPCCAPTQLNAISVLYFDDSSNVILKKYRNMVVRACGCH
The assay is described as follows: SPR ligand panel.

For assay [13], the target named is T5, human BMP-7 (human, UniProt P18075 293-431).
T5 construct: also called hBMP-7
T5 sequence (looked up): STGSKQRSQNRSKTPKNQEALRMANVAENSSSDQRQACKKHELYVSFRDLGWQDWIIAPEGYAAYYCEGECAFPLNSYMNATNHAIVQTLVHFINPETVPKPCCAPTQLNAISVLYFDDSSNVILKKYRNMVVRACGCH
The assay is described as follows: SPR ligand panel.

The target of assay [14] is T6, human TGF-β1 (human, UniProt P01137 part only).
T6 construct: also called hTGF-β1
Kind of assay: SPR ligand panel.

Assay [15] addresses T7, human TGF-β2 (human, UniProt P61812 303-414).
T7 construct: also called hTGF-β2
T7 sequence (looked up): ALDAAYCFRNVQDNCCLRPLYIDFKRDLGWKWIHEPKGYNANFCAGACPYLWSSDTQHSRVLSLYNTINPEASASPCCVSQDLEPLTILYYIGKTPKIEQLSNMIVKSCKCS
The assay is described as follows: SPR ligand panel.

The target of assay [16] is T8, human TGF-β3 (human, UniProt P10600 301-412).
T8 construct: also called hTGF-β3
T8 sequence (looked up): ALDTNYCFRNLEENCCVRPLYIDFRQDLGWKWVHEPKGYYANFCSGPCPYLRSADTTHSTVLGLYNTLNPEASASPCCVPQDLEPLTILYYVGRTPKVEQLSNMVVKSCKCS
Kind of assay: SPR ligand panel.

Assay [17] concerns the target T9, human activin A (human, UniProt P08476 311-426).
T9 construct: also called hActivin A
T9 sequence (looked up): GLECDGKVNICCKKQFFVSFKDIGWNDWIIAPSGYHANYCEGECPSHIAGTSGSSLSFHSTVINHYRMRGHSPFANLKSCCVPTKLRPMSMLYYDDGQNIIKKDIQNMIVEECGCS
The assay is described as follows: SPR ligand panel.

In assay [18] the target is T10, VEGF (human, UniProt P15692-4 27-191, limits assumed).
T10 construct: also called vascular endothelial growth factor
T10 sequence (looked up): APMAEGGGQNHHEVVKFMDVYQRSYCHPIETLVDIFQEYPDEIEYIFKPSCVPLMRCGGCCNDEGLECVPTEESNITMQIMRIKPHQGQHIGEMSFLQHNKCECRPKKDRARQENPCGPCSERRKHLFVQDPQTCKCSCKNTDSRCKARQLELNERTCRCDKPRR
The assay is described as follows: SPR.

In assay [19] the target is T1, human BMP-9. The assay is described as follows: SPR, captured hENG-hFc, ligand at 100 nM; ++++ = KD < 1 nM.
Assay [20] deals with T2, human BMP-10. Described as above.

T6 sequence (P01137 279-390 limits assumed): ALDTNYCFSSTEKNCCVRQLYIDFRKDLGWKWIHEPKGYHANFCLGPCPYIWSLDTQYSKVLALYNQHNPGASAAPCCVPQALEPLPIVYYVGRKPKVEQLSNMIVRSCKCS

B1: hENG(26-359)-hFc, CHO-cell-derived, with N-terminally truncated Fc domain (Fc fusion)
chain: ETVHCDLQPVGPERDEVTYTTSQVSKGCVAQAPNAILEVHVLFLEFPTGPSQLELTLQASKQNGTWPREVLLVLSVNSSVFLHLQALGIPLHLAYNSSLVTFQEPPGVNTTELPSFPKTQILEWAAERGPITSAAELNDPQSILLRLGQAQGSLSFCMLEASQDMGRTLEWRPRTPALVRGCHLEGVAGHKEAHILRVLPGHSAGPRTVTVKVELSCAPGDLDAVLILQGPPYVSWLIDANHNMQIWTTGEYSFKIFPEKNIRGFKLPDTPQGLLGEARMLNASIVASFVELPLASIVSLHASSCGGRLQTSPAPIQTTPPKDTCSPELLMSLITG[left out - human IgG1 Fc and a few adjoining residues]
On to B1, for which the “IC50 (nM), BRE-luciferase reporter-gene assay in A204 cells” value in assay [1] turned out to be 0.16 nM; in assay [2] it was 3.5 nM. Further, the figures for the “Potency (cell-based IC50)” value in [3] and in assay [4] were 0.16 nM and 3.5 nM, respectively. Also, the Kd in [5] worked out at 0.086 nM; in [6], 0.0042 nM; in assay [7], 0.0042 nM; in assay [8] it was 0.086 nM. For the same molecule, the off-rate (koff) in assay [5] was 0.0023 s⁻¹; in [6], 0.00035 s⁻¹; in assay [7], 0.00035 s⁻¹; in [8], 0.0023 s⁻¹.

B2: hENG(26-586)-hFc, CHO-cell-derived, with N-terminally truncated Fc domain (Fc fusion)
chain: ETVHCDLQPVGPERDEVTYTTSQVSKGCVAQAPNAILEVHVLFLEFPTGPSQLELTLQASKQNGTWPREVLLVLSVNSSVFLHLQALGIPLHLAYNSSLVTFQEPPGVNTTELPSFPKTQILEWAAERGPITSAAELNDPQSILLRLGQAQGSLSFCMLEASQDMGRTLEWRPRTPALVRGCHLEGVAGHKEAHILRVLPGHSAGPRTVTVKVELSCAPGDLDAVLILQGPPYVSWLIDANHNMQIWTTGEYSFKIFPEKNIRGFKLPDTPQGLLGEARMLNASIVASFVELPLASIVSLHASSCGGRLQTSPAPIQTTPPKDTCSPELLMSLIQTKCADDAMTLVLKKELVAHLKCTITGLTFWDPSCEAEDRGDKFVLRSAYSSCGMQVSASMISNEAVVNILSSSSPQRKKVHCLNMDSLSFQLGLYLSPHFLQASNTIEPGQQSFVQVRVSPSVSEFLLQLDSCHLDLGPEGGTVELIQGRAAKGNCVSLLSPSPEGDPRFSFLLHFYTVPIPKTGTLSCTVALRPKTGSQDQEVHRTVFMRLNIISPDLSGCTSKGTG[left out - human IgG1 Fc and a few adjoining residues]
notes: also called full-length construct
As for B2, the “IC50 (nM), BRE-luciferase reporter-gene assay in A204 cells” value came to 0.26 nM in assay [1] and 7.9 nM in [2]. For the same molecule, the “Potency (cell-based IC50)” value was found to be 0.26 nM in [3] and 7.9 nM in assay [4]. The Kd in [5] worked out at 0.49 nM; in assay [6], 0.033 nM; in assay [8], 0.49 nM. The koff in assay [5] was 0.011 s⁻¹; in [6], 0.0025 s⁻¹; in assay [7] it was 0.0025 s⁻¹; in [8], 0.011 s⁻¹.

B3: hENG(26-378)-hFc (truncated Fc) (Fc fusion)
chain: ETVHCDLQPVGPERDEVTYTTSQVSKGCVAQAPNAILEVHVLFLEFPTGPSQLELTLQASKQNGTWPREVLLVLSVNSSVFLHLQALGIPLHLAYNSSLVTFQEPPGVNTTELPSFPKTQILEWAAERGPITSAAELNDPQSILLRLGQAQGSLSFCMLEASQDMGRTLEWRPRTPALVRGCHLEGVAGHKEAHILRVLPGHSAGPRTVTVKVELSCAPGDLDAVLILQGPPYVSWLIDANHNMQIWTTGEYSFKIFPEKNIRGFKLPDTPQGLLGEARMLNASIVASFVELPLASIVSLHASSCGGRLQTSPAPIQTTPPKDTCSPELLMSLIQTKCADDAMTLVLKKELVATG[left out - human IgG1 Fc and a few adjoining residues]
notes: also called Human ENG(26-378)-hFc
For the molecule B3, the Kd was 0.0067 nM in assay [9] and 0.095 nM in assay [10]. In addition, the koff amounted to 0.00034 s⁻¹ in assay [9] and 0.0019 s⁻¹ in [10].

B4: hENG(26-437)-hFc (Fc fusion)
chain: GAETVHCDLQPVGPERDEVTYTTSQVSKGCVAQAPNAILEVHVLFLEFPTGPSQLELTLQASKQNGTWPREVLLVLSVNSSVFLHLQALGIPLHLAYNSSLVTFQEPPGVNTTELPSFPKTQILEWAAERGPITSAAELNDPQSILLRLGQAQGSLSFCMLEASQDMGRTLEWRPRTPALVRGCHLEGVAGHKEAHILRVLPGHSAGPRTVTVKVELSCAPGDLDAVLILQGPPYVSWLIDANHNMQIWTTGEYSFKIFPEKNIRGFKLPDTPQGLLGEARMLNASIVASFVELPLASIVSLHASSCGGRLQTSPAPIQTTPPKDTCSPELLMSLIQTKCADDAMTLVLKKELVAHLKCTITGLTFWDPSCEAEDRGDKFVLRSAYSSCGMQVSASMISNEAVVNILSSSSPQRTGGG[left out - human IgG1 Fc]
notes: also called ENG(26-437)-Fc
Take B4: the binding result in assay [11] is “no binding (tested: 100 nM)”; in [12], “no binding (tested: 100 nM)”; in [13], “no binding (tested: 100 nM)”; in assay [14], “no binding (tested: 100 nM)”; in [15], “no binding (tested: 100 nM)”; in assay [16] it was “no binding (tested: 50 nM)”. In assay [17], the binding result is given as “no binding (tested: 100 nM)”. In addition, the equilibrium dissociation constant (Kd) was determined as 0.019 nM in assay [9] and 0.13 nM in assay [10]. For the same molecule, the values for the koff in [9] and in [10] were 0.0014 s⁻¹ and 0.0028 s⁻¹, respectively.

B5: hENG(26-359)-hFc (Fc fusion)
chain: ETVHCDLQPVGPERDEVTYTTSQVSKGCVAQAPNAILEVHVLFLEFPTGPSQLELTLQASKQNGTWPREVLLVLSVNSSVFLHLQALGIPLHLAYNSSLVTFQEPPGVNTTELPSFPKTQILEWAAERGPITSAAELNDPQSILLRLGQAQGSLSFCMLEASQDMGRTLEWRPRTPALVRGCHLEGVAGHKEAHILRVLPGHSAGPRTVTVKVELSCAPGDLDAVLILQGPPYVSWLIDANHNMQIWTTGEYSFKIFPEKNIRGFKLPDTPQGLLGEARMLNASIVASFVELPLASIVSLHASSCGGRLQTSPAPIQTTPPKDTCSPELLMSLITGGG[left out - human IgG1 Fc]
For the molecule B5, the binding result in assay [18] is given as “no binding”; in assay [11], “no binding (tested: 100 nM)”; in [12], “no binding (tested: 100 nM)”; in [13] it was “no binding (tested: 100 nM)”; in assay [14] it was “no binding (tested: 100 nM)”; in assay [15] it was “no binding (tested: 100 nM)”. The binding result in assay [16] was “no binding (tested: 50 nM)”; in assay [17] it was “no binding (tested: 100 nM)”; in [19], “binds”; in assay [20] it was “binds”.
